This is an account of results in the supplement of paper PMC11417369.

± gives the standard deviation of the averaged measurements. The list shows a part of the results.

This assay deals with PfAP2-G AP2 domain (GST-tagged). In words: gcPBM binding intensity (ln(normalized median fluorescence intensity)); higher = stronger DNA binding. In a few lines: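 The binding buffer was 1× PBS containing 1% milk, 0.2 mg/ml BSA, 0.5% salmon testes DNA and 0.03% Triton X-100. In it, GST-tagged P. falciparum DNA-binding domains expressed in E. coli were applied for 1 h to an Agilent 4 × 180k array of primer-extended double-stranded 36-bp intergenic genomic probes plus negative controls. Binding intensity, read with Alexa488 anti-GST antibody and a 488 nm scan, is the highest Masliner-normalised natural-log median intensity across replicate spots of either probe orientation.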
Regarding “TATGTCAGATGAAAGGGTACATAATATAATATATTT [XGTACX_site8062]”, the “gcPBM binding intensity (ln)” value turned out to be 11 ± 0.57.
As for “TTTATAAAGAAACACACACACATGTGAACATAAAAA [CACACA_site1908]”, the “gcPBM binding intensity (ln)” value came to 10.3 ± 0.12.
In the case of “AAAATACATAAATGTTCACACATTAAAAAGCAGAAG [CACACA_site5346]”, the “gcPBM binding intensity (ln)” value was found to be 9.91 ± 0.11.
Next, “TATATTTCAGGGGGGAGTACAAATTTTTTTATATAA [XGTACX_site1600]”: 11.8 ± 0.87; “TTTATGAAGTAAAAATATAAATTCACAAAGTTAAAA [CACACA_negctrl_site1476]”: 9.79 ± 0.028; “AAGAACAGAACGTACACACACATATTTATATTTATA [CACACA_site7594]”: 11.4 ± 1.
“GGATTCAAAAAAAAAAATAAAAGTAAATAATAAATA [TGCATGCA_negctrl_site348]”: the “gcPBM binding intensity (ln)” value turned out to be 9.58.
Under “TAAATATATTTATACACACACACCAAAGCAATAGAT [CACACA_site7393]” stands 10.5 ± 0.21; under “TTCAATATACATATGTGTACTAAAATAAATAGAAAA [XGTACX_site5708]”, 11.3 ± 0.83.
With “ATTACAACATTTTATACACACGTGATTATTAATTTT [CACACA_site5581]”, the “gcPBM binding intensity (ln)” value was found to be 9.95 ± 0.21.
“ATTTGTAATATTAAATGTACAGGTAAGAAATATCAG [XGTACX_site1562]”: the “gcPBM binding intensity (ln)” value came to 11.1 ± 0.69.
Under “TAAGGAAAAAAAATATGTACTTATAGTTCCTTCTTT [XGTACX_site2202]” stands 11.1 ± 0.59; under “AACAAAATAAGAAAACGTACAAATGTTTCAAATTCT [XGTACX_site1544]”, 11.2 ± 0.68; under CATTATGTACAAAAAGTGCAATATATATTAACACTG, 11 ± 0.63.
Next, “TTATATATATATATATATATATATATATATATAAAT [GTGCAC_negctrl_site126]”: 9.62 ± 0.3; “TTAATAAATATCAATACACACACACTAATGTGAATA [CACACA_site9254]”: 9.915 ± 0.078; “TTTTTGAGTGCACATACACACAGACATACATTTAAA [CACACA_site5813]”: 10.7 ± 0.6.
Turning to “TTTTCAAAGATATATACACACATGCATATTACGGTG [CACACA_site6505]”, the “gcPBM binding intensity (ln)” value stood at 10.1 ± 0.19.
Next, “ATAAAACGTACAATGGTGCATATAAATAATATATAT [GTGCAC_site9960]”: 11.3 ± 1.1; “CATATATAGATATATACACACATATATAAATAAATA [CACACA_site6759]”: 9.77 ± 0.042.
Turning to “AAAATGTTATTGGAAAGTACAAAAAAAATTATATAA [XGTACX_site4074]”, the “gcPBM binding intensity (ln)” value amounted to 10.9 ± 0.53.
Next, “TTAATATATATATATATATATATATTTTTATTTTTT [CACACA_negctrl_site763]”: 9.35 ± 0.099.
Under “TGTATTAACAAAAAGGTGCGGATATATATAAAAAAT [GTGCAC_site9473]” stands 10.18 ± 0.049.
As to “TATGTATATTCTTTCAGTACACATAATGTTGTCATA [XGTACX_site8845]”, the “gcPBM binding intensity (ln)” value stood at 11.2 ± 0.67.
With “AAAAAAAAGAATTATTGTACAAAAGAACAATAAATA [XGTACX_site1368]”, the “gcPBM binding intensity (ln)” value was found to be 10.7 ± 0.5.
Next, “GTGAAATTATATTTTTGTACATATATTATATATTAT [XGTACX_site3387]”: 10.8 ± 0.48; “GGTGCACCCATATACACACACAAATACAATGATAAA [CACACA_site1132]”: 10.6 ± 0.76; “ATATAACATGGACACACACACATATATATATATTAT [CACACA_site6135]”: 10.9 ± 0.51.
On to “AAGTGTTATGAAATATGTACACATATATTATATATA [XGTACX_site6022]”, for which the “gcPBM binding intensity (ln)” value was 11.4 ± 0.89.
Under “TATAAATAAATATGGAGTACCAAAAAAATTATAAAA [XGTACX_site7581]” stands 11.3 ± 0.69; under “GTATATATCTAAAAATATATATATATATATATATAT [CACACA_negctrl_site788]”, 9.99 ± 0.59.
In the case of “ATCGAAGGGGTACAAAATAAAAATAATTCTTTCAAA [TGCATGCA_negctrl_site373]”, the “gcPBM binding intensity (ln)” value amounted to 11.4 ± 1.1.
Under “AAAATAAATATAACCACACACGAAAGAGAGAGAAAA [CACACA_site3272]” stands 10 ± 0.13; under “TAACCATAAGAAGATTGTACATAATAAAAGTATTCT [XGTACX_site1117]”, 10.9 ± 0.45; under “AACTGCAAAAAAAGACGTACAAATTATTAATTGCAA [XGTACX_site8929]”, 11.6 ± 0.87.
“AAATATAAAAAAAAAAGTACTTTGTTACTTTTCTAT [XGTACX_site6034]”: the “gcPBM binding intensity (ln)” value worked out at 11.1 ± 0.69.
Next, “TTTTTATTAAATAAAGCACACACAACAACTTTTCAC [CACACA_site9372]”: 10.6 ± 0.47.
Under “TACAGACATACATACACACATACATATATATATATA [CACACA_site1940]” stands 10.1 ± 0.25; under “ATATATATATATATATGTACATACCCAATTGTGTAA [XGTACX_site6352]”, 11.2 ± 0.56.
Next, “ATTTAAAATGGTTATACACACATAAAAGGGGAAATG [CACACA_site2649]”: 10.2 ± 0.21; “ATTTTTATGTTGAAAAGTACTTGAATCCCATGTAAC [XGTACX_site4453]”: 11 ± 0.64; “TATCCATATTTGTTCACACACACACCCATTTATATA [CACACA_site3571]”: 10.35 ± 0.085.
With “TTAATCTTTCCTACATGTACACACAGAAAAAAAAAA [XGTACX_site5213]”, the “gcPBM binding intensity (ln)” value worked out at 11.5 ± 1.
Next, “TTCTTTTTTTTTAAAACAAACAAACAAACAAACAAA [CACACA_negctrl_site832]”: 10.1 ± 0.38.
